Data as given in the supplement of paper PMC12632987.
In all, about 1,800 sequences were measured (“median log2 fold change of GCK-ALFA target abundance (FLAG IP / Myc IP barcode read proportion)”: median about 0.14, lowest 2% from about -0.84 on). Some of the results follow.

T1: TRAF2, Q12933
T1 chain: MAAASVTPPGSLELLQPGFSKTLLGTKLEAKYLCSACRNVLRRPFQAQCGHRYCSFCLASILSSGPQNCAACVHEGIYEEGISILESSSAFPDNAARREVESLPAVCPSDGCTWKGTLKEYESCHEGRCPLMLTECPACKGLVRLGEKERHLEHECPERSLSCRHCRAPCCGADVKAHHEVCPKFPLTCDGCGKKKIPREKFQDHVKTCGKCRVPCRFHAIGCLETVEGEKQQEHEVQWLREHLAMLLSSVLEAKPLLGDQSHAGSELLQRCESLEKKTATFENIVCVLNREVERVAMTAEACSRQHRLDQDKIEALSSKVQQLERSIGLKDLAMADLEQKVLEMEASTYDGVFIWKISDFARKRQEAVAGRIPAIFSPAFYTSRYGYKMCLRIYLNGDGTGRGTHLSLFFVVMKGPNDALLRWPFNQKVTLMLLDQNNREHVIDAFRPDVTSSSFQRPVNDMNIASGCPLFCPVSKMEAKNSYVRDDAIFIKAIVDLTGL

B1: traf2_out_18_167_1851 (protein)
chain: EEEIRKKREELSDRLVQLSEVKRAARAALQALETDPSLVPAELARLAEAAASIPELQPLVAAARAALEAGDREGLRATLEALIEKAQKLMNEVLKEYEKL
B2: traf2_out_11_155_745 (protein)
chain: EERLKLLQEMNDKIMELFDEAREKALEIARKAAEKHPEHKEAIEAKIEATKGFSYRSFILELIRLFKELGLEEEAEELEKLLEETQKEANKIVQETEEKL
B3: traf2_out_3_89_2303 (protein)
chain: MEEEKKKIEEARKIAEAYLKGFEKSLRFVAKEMIEDGMSLETLKGVAEAARNALLEEFRESLKERGLSEEEIEKLVKELEEELEKVVEEVIEEAEKRRKE
B4: traf2_out_20_3_2112 (protein)
chain: EELEKELKEELKKAEELLKEAAKLADPETAKKLKELAKRLKESEKLSYTDRLVVVSEIKREVLLLQQEAEKAGKKELAKVLEKAAEALNKAANLLMKIIE
B5: traf2_out_13_95_1080 (protein)
chain: SKETNEEIMKIADEMLEKSEKILKELIKKVADNPEAKAAVEKALHLNETQGINAAIHLLKELAKKNPEYKELLNEAIEKLEKIRREAGRKVAELLKKEEE
B6: traf2_out_17_162_1551 (protein)
chain: SALEEELERLEEELRRLEEELERLKKELENLEKKSKEELTDLLVEASEARRRARELAERLRELEPLIGEERAGELRERAEEIAEELQRIANKIYKELEKK
B7: traf2_out_20_3_2148 (protein)
chain: SELEEELKKELEEALKILEEASKLADPKTAKKLDKLKKKLEESEKLSYSDRLVVVSEVRREVRLLSQEAKAAGKEKLAKLLEEAAEKLNRAANLLMKIIE
B8: traf2_out_16_104_1416 (protein)
chain: AAATAARFDEIIARYEEIAEEAQRIANELYELYLKASPEKKKELSDLLVEVSELRREALEARLEVERARATGGDLAAHEARLEELEKRLEELKKEAEKLK
B9: traf2_out_13_95_1115 (protein)
chain: SKELAEKIMEISDKALDQANALLDALEAKIKASGKLAPEVAAALAAAKKSTISTAIHTLKELAKKYPEFKADFEATIAQLEQIRRDAGREVAKLIKEEKE
B10: traf2_out_18_117_1771 (protein)
chain: SEREKIIKELEELAERLARAASELGKAVLEHWEELTPEEKSEAMDVLADLSEVRREALLLIHRIKEEGLPVEEARKRFEELKKRAEEALKAAEARIKRIE
B11: traf2_out_17_178_1699 (protein)
chain: SKEALRAEISALTDELIDLTDRYGTELLARARAEGVLSPEELAALEAALASGSNRTFLATAEEILPRSAASPETLALLEEFKEERRRLEKKIAEAYEKYE
B12: traf2_out_18_167_1835 (protein)
chain: EEEKEKKRNELLDEMIDISEHYRAAIEYLELLAKDPKEAEAKKEEYMKKIDKDPELVAKIKEVLALPDEERKKAAKALADEVYDERQKKMQELWDKREAV
B13: traf2_out_18_3_1919 (protein)
chain: SEEERKEISEKIDEIVDEATARAREALDRGLAEHPEFAAEFERLRADLDAGAGPFGILDALAELFRRAGDEAAAAELEAFLREKRKELQELVDKYEELLK
B14: traf2_out_13_95_1217 (protein)
chain: SKEANEERRKVANDMLDRAEAVIDDLAAKLAPYPETKADIDAIRHALNNHGISAAIAKLEEAAKKYPEVAELFEAAAAELRAIRAEAGKKFAEIDKKELE
B15: traf2_out_20_3_2218 (protein)
chain: DELKKEIKKKLEEMEKLLEEAKPLLKPEDYAELKKLLEEAKKALEKDLTDALVKLSELRRKALELAQKAKAAGNEELAKLLEEMAELANKAAGLVLKAIE
B16: traf2_out_17_178_1692 (protein)
chain: SKEEERAKISALTDELIDLAEATGRRLLALAEAAGALSPEELAALRRATRLGSARDVLALTARAPPELRADPEVQALVADLRARTRELGKKIAEAYERYE
B17: traf2_out_11_155_696 (protein)
chain: EEKIKLNNELVDEMMKIEDEAKAKLAEIADAAAAEHPEHAAEIAALLEESRRFSATTMAGMLAALFRELGLEEYAARVEELREEAQKKKNEIYKEIEKKM
B18: traf2_out_1_158_922 (protein)
chain: DTLKNLILSVIELTGQNAIDSARDNGDEETAKALEKLTKEILEAAKKLLFEENKSPEEVIKEIEKIAEKAEKEVDEETAEAIRELRRKIVSGIKQVVKLM
B19: traf2_out_11_57_903 (protein)
chain: ELEKLLKELEKIARELLKILEEAGAPESLIQLAKRLKEIVEDAKESDTETRKLLLEAAKYRAKQIVDEIKAAGPSTPELKKALELAEEAKKLAKEAIKLL
B20: traf2_out_20_154_1999 (protein)
chain: SILDKLNEEAEKASLYRFKSRLYRLAAQEKAKPGSAAKELATLKKTYKADPEKVAAYEEVEKDLAAGASVEEFEAKAAEYEKKYKETNKKVNELLKKYEE
B21: traf2_out_18_117_1775 (protein)
chain: SERDKIIAELKALAEELDAAASRLGKAVLEHWDELTPEERSAAMDVLADLSAVRREALELIHRIEEEGLPLEEAKERAEALKKRADAALAAADAMIARIA
B22: traf2_out_17_178_1667 (protein)
chain: SKEEKRKKISEATDELIDLAEEAAATLLAIARAEGVATPEELAAIEAARRRGSANEVLALMDRFEPRSPRAAEVAALRDDFRARYRELAKKIAEAYKEYE
B23: traf2_out_1_158_919 (protein)
chain: DVKNNLMLATIKLVVENQVQSALDDGDEEAAKEIKELGEKLIELAKKLQIEEKKSVEELIEAIRKLVEERKKKVDEKTAERIKRLERQVISGLKQVDKLM
B24: traf2_out_20_3_2165 (protein)
chain: EELEKEAEKELEKALKLLKEAAKLSDPETAKKLEELIKRLKASKSLSPVDRLVVVSEVRREVLRLAEEAKKAGKEELAKLLEKAADELNRLAQLLNKIIE
B25: traf2_out_5_63_2369 (protein)
chain: SSREEERKKLTEEAKEIEKIVLEALKLSREEAKKLVEEAAERGLDINLIAGTFRAHARFLRLQGGDEEEIEKAEELAKFAEELRKKKEAEAAAKAAALAA
B26: traf2_out_20_3_2133 (protein)
chain: EELRRAYREALAEAIALLKEAAKLADPETAKRLEALVARLKASEELPLEDQLVVLSEVRREVRALAEEARRAGKEELAAVLEAAADALNRAMNLVMRLIE
B27: traf2_out_5_192_2334 (protein)
chain: AAAAAAAREAFLAAARAELTAEVAALAAEADRISEEELTIRLEHAVLTLLNRAETAEQREAVIAIAREVLEAEPRISPETVEGVVRTARQVLEALEAVDA
B28: traf2_out_11_155_741 (protein)
chain: EEKQKLLQEMNQKITDLFDKAKEKALEIAEEAAKKHPEHAEEIKELIEKTKGFSYRSFILSLIELFEKLGLEEEAKKLKELLEKTQKEANKIVQETEKKL
B29: traf2_out_6_156_2445 (protein)
chain: MKEAILAETKAKLEEEIKKLAKASEEKKIKYISNIAGTVYRALQRLREAGASLEEIKAFAEEVKAFIEKEAKKYGLDEDTKNLLLSSVNAVFDVALAEAK

Target: T1, TRAF2, Q12933
Assay: median log2 fold change of GCK-ALFA target abundance (FLAG IP / Myc IP barcode read proportion) (log2 ratio); each designed protein is fused to an ALFA-tag nanobody in HEK293 cells to bring the named protein to FLAG-tagged glucokinase (GCK); Myc marks an untargeted standard; higher = target protein stabilised (more abundant)
Conditions: target protein: 3xFLAG-MCP-GCK-ALFA reporter; HEK293 landing pad (RPLP)
Method in brief: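 The readout is target abundance, the per-binder median log2 ratio of FLAG to Myc barcode read proportions. It came from HEK293 landing-pad cells carrying a recombined ALFA-nanobody-fused binder library, induced with 2 μg mL^−1 doxycycline and transfected with a plasmid for a FLAG-tagged target and a Myc-tagged standard. After 48 h, lysates were immunoprecipitated with anti-FLAG and anti-Myc, and circular RNA barcodes were reverse transcribed, amplified and sequenced. Each barcode needed a proportion of at least 10^−7 in both replicates and each binder at least 3 barcodes per replicate, a pseudocount of 10^−6 was added, and the replicates were pooled.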

| Binder | median log2 fold change |
| --- | --- |
| B1 | 0.103 |
| B2 | 0.0401 |
| B3 | -0.145 |
| B4 | 0.339 |
| B5 | -0.2 |
| B6 | 0.0543 |
| B7 | 0.264 |
| B8 | 0.286 |
| B9 | -0.178 |
| B10 | -0.0427 |
| B11 | 0.224 |
| B12 | 0.297 |
| B13 | 0.19 |
| B14 | 0.198 |
| B15 | 0.304 |
| B16 | -0.0433 |
| B17 | 0.295 |
| B18 | 0.336 |
| B19 | 0.276 |
| B20 | -0.0315 |
| B21 | -0.156 |
| B22 | 0.105 |
| B23 | 0.00946 |
| B24 | 0.316 |
| B25 | -0.191 |
| B26 | -0.176 |
| B27 | 0.276 |
| B28 | 0.279 |
| B29 | 0.135 |
